# According to PubChem BioAssay (Tox21):
# Values joined by “and” are separate entries in the source; they are usually repeats but may differ in a detail not shown here. Equal values may be shown once. This list was built around the results that the source calls inconclusive (neither active nor inactive); the mix of calls is not that of the screen. Where the call is inconclusive, the potency comes from a doubtful curve fit. Active and inactive are the calls of the source. The call rests on the fitted dose curve; in most records, active means well fitted activation curve with a large enough effect in the signal ratio in the repeat runs (not every such curve was filed as active); inconclusive means weak or mixed curves; inactive means flat fitted curve, though single readings scatter; the % refers to the signal ratio.
# Test: qHTS assay to identify small molecule agonists of H2AX (AID 1224845)
# Conditions: CHO-K1 phospho-H2AX Ser139 HTRF, 3 h; activation (H2AX phosphorylation): at 154 µM (top of the series)
# Outline: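 Phospho-H2AX Ser139 measured by HTRF (ex 320 nm; em 665 and 620 nm) after 24 hr antibody incubation. Compounds, 15 concentrations, 0.76% DMSO, were applied to CHO-K1 cells for 3hr at 37C before lysis.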
# On the % scale 0 is the no-effect control and ±100 the full control effect; potency means the concentration at half of the fitted maximal effect; tags describe the fitted curve by direction and shape or compound fluorescence and quenching.
Compound,Potency,activation (H2AX phosphorylation)
CC(C)(c1ccccc1)c1ccc(O)cc1,"inconclusive: 112 µM [activator, single point] and inconclusive: 101 µM [activator]",
O=c1[nH]c2ccccc2n1C1CCN(CCCC(c2ccc(F)cc2)c2ccc(F)cc2)CC1,,inconclusive: 10.2%
CCCCCCCCCC[N+](C)(C)CCCCCCCCCC,inconclusive: 45 µM [activator],
CCOC(=O)CC(SP(=S)(OC)OC)C(=O)OCC (stereo not drawn),inconclusive: 31.8 µM [fluorescent],
CC(C)(c1cc(Cl)c(O)c(Cl)c1)c1cc(Cl)c(O)c(Cl)c1,inactive,
CCOC(=O)CC(=O)CCl,,inactive: 3.34%
O=[N+]([O-])c1ccc(Cl)c(Cl)c1Cl,,inactive: 8.38%
C=CC1(C)OC(=O)N(c2cc(Cl)cc(Cl)c2)C1=O (stereo not drawn),inconclusive: 112 µM [activator],
